The whole screen tested about 52,000 compounds, of which about 4,300 (8.3%) were called active. Rule as the data show it: active = survival mostly below about 52% (no sharp cut-off); inactive = mostly above about 56%. This is one part of the list.
What follows are compounds tested on DeltatarO mutant (assay: S. aureus survival, RN4220 and DeltatarO strains – OD600, teichoic acid synthesis inhibitors, primary screen (AID 463173)). Conditions: S. aureus RN4220 wild type/DeltatarO growth, OD600, 18 h, stronger effect = lower value, screened at 18.75 µg/mL (by protocol).
In the case of `CCOc1ccc(NC(=O)CSc2nnc(-c3ccc(C)cc3)c(-c3ccc(C)cc3)n2)cc1`, the survival was inactive: 115%. `Cc1oc2ncn(CC(C)C)c(=O)c2c1C(=O)NCCCN(Cc1ccccc1)C(C)C` was tested, and the survival was inactive: 117%. For `CCc1cccc(C)c1NC(=O)CSc1nnc(N)s1`, the survival was inactive: 80%. `COc1ccc(CCNC(=O)CS(=O)Cc2nc(-c3ccc(C)cc3)oc2C)c(OC)c1` (stereo not given) was tested, and the survival was inactive: 91%. In the case of `O=C(Cn1c(=O)nc(-c2ccccc2)c2ccccc21)NCCCc1ccccc1`, the survival was inactive: 67%. In the case of `Cc1ccccc1N1CCN(S(=O)(=O)c2nnc(NC(=O)c3ccc(Cl)cc3)s2)CC1`, the survival was active: 43%. In the case of `CCOc1ccccc1NS(=O)(=O)c1cnc(N)nc1`, the survival was active: -1%. For `COc1ccccc1N1CCN(C(=O)Cc2c(C(=O)O)c(C)cn2C)CC1`, the survival was active: -5%. With `COc1ccc(-c2cc(C(=O)NCc3ccccc3)c3c(-c4ccccc4)[nH]nc3n2)cc1` the survival was inactive: 93%. `CC1CCN(C(=O)Cn2ncc3c4ccccc4n(Cc4ccc(Cl)cc4)c3c2=O)CC1` was tested, and the survival was inactive: 87%. In the case of `CCCCSCCCNC(=O)C1CCC(CNS(=O)(=O)c2ccccc2)CC1` (stereo not given), the survival was inactive: 89%. `CC(=O)c1ccc(NC(=O)c2cc(-c3ccc(Cl)c(Cl)c3)on2)cc1` was tested, and the survival was active: 47%. For `CCc1ccccc1NC(=O)C1CCCN(c2nnc(-n3c(C)ccc3C)s2)C1` (stereo not given), the survival was inactive: 73%. In the case of `CCn1c(CN2CCOCC2)nc2cc(NC(=O)c3cc(OC)c(OC)c(OC)c3)ccc21`, the survival was inactive: 89%. For `CC(=O)c1ccc(NC(=O)C2CCC(CNS(=O)(=O)c3ccc4c(c3)CCCC(=O)N4)CC2)cc1` (stereo not given), the survival was inactive: 73%. With `CSc1nn(Cc2ccc(Br)cc2)c(N(C(C)=O)C(C)=O)c1S(=O)(=O)c1ccccc1` the survival was inactive: 60%. In the case of `Cc1c(C(=O)N(C)c2cccc(C(F)(F)F)c2)sc2nc3n(c(=O)c12)CCCCC3`, the survival was inactive: 100%. In the case of `CCOc1ccc(OCC(=O)Nc2c(C(=O)Nc3ccc(C)cc3)oc3ccccc23)cc1`, the survival was inactive: 73%. In the case of `CCOc1ccc(CNC(=O)c2cnc3sc(N4CCC(C)CC4)nn3c2=O)cc1OC`, the survival was inactive: 74%. With `COC(=O)C1=C(C)NC2=C(C(=O)CC(c3ccco3)C2)C1c1cccc(OC)c1` (stereo not given) the survival was inactive: 93%. In the case of `O=S(=O)(Nc1cccc(-c2ccc(N3CCCCC3)nn2)c1)c1ccc(Cl)s1`, the survival was inactive: 84%. `Fc1ccc(CNc2nc3ccc(Cl)cc3n3nnnc23)cc1` was tested, and the survival was inactive: 90%. `COc1cccc(-n2c(=O)c3sc4ccccc4c3n(CC(=O)Nc3cccc(Cl)c3)c2=O)c1` was tested, and the survival was inactive: 69%. `O=C(Nc1ccc(F)cc1F)c1ccc2c(=O)n3c(nc2c1)CCCCC3` was tested, and the survival was inactive: 57%. In the case of `O=C(Nc1ccc2c(c1)N(C1CCCC1)C(=O)c1ccccc1S2)c1ccc(F)cc1`, the survival was inactive: 66%. For `O=S(=O)(c1cccc(Cl)c1)c1nnn2c1nc(NC1CCCCCC1)c1sccc12`, the survival was inactive: 106%. In the case of `CCN(CC)CCCNC(=O)c1ccc2nc(CCc3ccccc3)oc2c1`, the survival was inactive: 92%. `Cc1cc(C(=O)Nc2cccc(OC(C)C)c2)c(C)o1` was tested, and the survival was inactive: 105%. With `Cc1ccc(S(=O)(=O)c2c(C)nn(-c3ccccc3)c2OC(=O)c2ccccc2F)cc1` the survival was inactive: 83%. With `CCN(CC)c1ccc(NC(=O)C2COc3ccc(OC)cc3C2)c(C)c1` (stereo not given) the survival was inactive: 135%. For `CCCC(=O)N(Cc1nc2ccccc2c(=O)[nH]1)C1CCCC1`, the survival was inactive: 102%. In the case of `C=Cc1ccc(Cn2c(=O)n(-c3cccc(C)c3)c(=O)c3c2c2cc(C)ccc2n3C)cc1`, the survival was inactive: 107%. In the case of `COc1ccc(-c2nc3ccccc3s2)cc1NC(=O)c1cc2ccccc2o1`, the survival was active: 38%. For `CC1CCc2onc(C(=O)N3CCN(c4cccc(C(F)(F)F)c4)CC3)c2C1` (stereo not given), the survival was active: 37%. For `Cc1ccc(NC(=O)CCNS(=O)(=O)c2cccc3nsnc23)cc1`, the survival was inactive: 57%. `Cc1ccc(NC(=O)Cn2c(C)cc(C)c(C#N)c2=O)cc1F` was tested, and the survival was inactive: 94%. For `Cc1cc(C)c(/C=C/c2onc(C)c2S(=O)(=O)N2CCC(C(=O)N3CCN(c4ccc(Cl)cc4)CC3)CC2)c(C)c1`, the survival was inactive: 78%. With `Cc1ccc(C(=O)Nc2nc3n(n2)C(c2ccccc2)C=C(c2ccccc2)N3)cc1` (stereo not given) the survival was inactive: 57%. For `Cn1nnc(C(O)CNCc2ccc(F)cc2)n1` (stereo not given), the survival was inactive: 105%. `CC(=O)N1CCCc2cc(S(=O)(=O)N3CCN(c4ccc(F)cc4)CC3)ccc21` was tested, and the survival was inactive: 87%. For `CCC(=O)OCCCNc1nc(-c2ccc(Cl)cc2)nc2ccccc12`, the survival was active: -2%. With `CCc1cccc(-n2nnc(-c3nc(-c4cccs4)no3)c2N)c1` the survival was inactive: 72%. For `COc1ccc(NC(=O)c2noc3c2CSc2ccccc2-3)cc1Cl`, the survival was inactive: 73%. For `Clc1ccc2nc(-c3ccc(Br)o3)c(Nc3ccc4c(c3)OCCO4)n2c1`, the survival was inactive: 109%. `COc1cccc(OC)c1C(=O)Nc1cccc(-c2nc3cc(C)cc(C)c3o2)c1` was tested, and the survival was inactive: 68%. With `O=C(Cn1nc(Cc2cccnc2)c2ccccc2c1=O)Nc1cccc(C(F)(F)F)c1` the survival was inactive: 54%. With `CN1CCN(C(c2cccc(Br)c2)c2sc3nc(-c4ccco4)nn3c2O)CC1` (stereo not given) the survival was inactive: 70%. `CCOc1ccc(-c2nonc2NC(=O)c2ccc(C)cc2)cc1OCC` was tested, and the survival was inactive: 100%. In the case of `O=C(Cc1csc2ccccc12)NCc1ccccc1F`, the survival was inactive: 82%. With `CCOc1ccc(-c2nc(SCC(=O)Nc3ccc4c(c3)OCCO4)c(-c3ccc(F)cc3)[nH]2)cc1` the survival was inactive: 97%. With `CCc1ccc(NC(=O)CN2C(=O)C(c3ccccc3)=NC23CCCCCC3)cc1` the survival was inactive: 65%. In the case of `CCc1ccc(NC(=O)N(Cc2ccc(C)cc2)Cc2cccn2-c2nnc(N3CCCC3=O)s2)cc1`, the survival was inactive: 105%. In the case of `O=C(CSc1nc2ccsc2c(=O)n1Cc1ccccc1F)NCc1ccccc1`, the survival was inactive: 122%. `O=C1CCC(=O)N1CNC1CCCCC1` was tested, and the survival was inactive: 110%. With `CC(C)OC(=O)C(N)c1ccccc1` (stereo not given) the survival was inactive: 98%. In the case of `Cc1ccc(C(CC(=O)Nc2cc(C)cc(C)c2)N2Cc3ccccc3C2=O)cc1` (stereo not given), the survival was inactive: 71%. With `Clc1ccc(CNc2ccccn2)cc1` the survival was inactive: 89%. For `Cc1cccc(NC(=O)CSc2nnc(C)c(=O)[nH]2)c1`, the survival was inactive: 84%. In the case of `CCS(=O)(=O)NCC(c1ccco1)N1CCN(c2ccc(OC)cc2)CC1` (stereo not given), the survival was inactive: 91%. With `CCN(CC)c1ccc(-n2nc3cc(C)c(NC(=O)c4ccccc4F)cc3n2)cc1` the survival was active: 56%. `Cc1ccccc1CN1c2ccccc2-c2nc(SCC(=O)NCCc3ccccc3)ncc2S1(=O)=O` was tested, and the survival was inactive: 66%. For `Cc1ccc2nc(CSc3nnc(NC(=O)COc4ccccc4)s3)cc(=O)n2c1`, the survival was inactive: 67%. With `CCOC(=O)c1c(C)c(-c2ccccc2)n(CC(=O)NCCc2ccc(C)cc2)c1C` the survival was inactive: 78%. With `CCCCc1ccc(NC(=O)COc2cccc3c(=O)n(C)ccc23)cc1` the survival was inactive: 94%. With `CC(OC(=O)Cc1c[nH]c2ccccc12)C(=O)NC1CCCC1` (stereo not given) the survival was inactive: 94%. With `CCOC(=O)c1ccc(NC(=O)c2cc(=O)c3cc(CC)ccc3o2)cc1` the survival was inactive: 62%. With `CCCc1cc(=O)n2[nH]c(-c3ccc(C)cc3)nc2n1` the survival was inactive: 83%. `COc1ccc(-c2cc(C(F)(F)F)nc(SCC(=O)NCCc3ccc(OC)c(OC)c3)n2)cc1` was tested, and the survival was inactive: 59%. `Cc1ccc(NC(=O)N2CCC(CN3CCC(C)CC3)CC2)cc1F` was tested, and the survival was inactive: 89%. `Cc1ccc(NC(=O)C2CCCN(c3nnc(-n4c(C)ccc4C)s3)C2)cc1Cl` (stereo not given) was tested, and the survival was inactive: 80%. With `COc1cccc(CNC(=O)C(NS(=O)(=O)c2ccc3nc(C)sc3c2)C(C)C)c1` (stereo not given) the survival was inactive: 86%. In the case of `COc1cc(CNC(=O)c2cc3n(n2)CCCN(Cc2ccc(C)cc2)C3=O)cc(OC)c1OC`, the survival was inactive: 58%. `Cc1c(NC(=O)c2sc3c([N+](=O)[O-])cccc3c2Cl)cccc1-c1nc2ccccc2o1` was tested, and the survival was inactive: 65%. In the case of `Cc1ccc(-c2c3c(=O)n(C)c(=O)n(C)c3c3c(C(F)(F)F)nc4ccccc4n23)cc1`, the survival was inactive: 77%. For `CC1(C)CC(=NNC(=O)c2n[nH]c3c2CCC3)CC(C)(C)N1`, the survival was inactive: 92%. For `CCS(=O)(=O)N1CC(=O)N(c2cccc(C)c2C)C(C)(C(=O)NC2CCCCC2)C1` (stereo not given), the survival was inactive: 83%. With `CCOC(=O)c1[nH]c(C)c(CCC(=O)Nc2ccc(N(CC)CC)cc2C)c1C` the survival was inactive: 91%. `CC(C)c1ccc(NC(=O)c2ccc(NC(=O)CCS(=O)(=O)c3cccs3)cc2)cc1` was tested, and the survival was inactive: 76%. `Cc1ccc(CCNc2nc3c(S(=O)(=O)c4ccc(C)cc4)nnn3c3ccsc23)cc1` was tested, and the survival was inactive: 108%. For `Cc1ccc(-n2ncc3c(NCCCc4ccccc4)ncnc32)cc1C`, the survival was inactive: 88%. For `COC(=O)c1cc2oc(C)cc2n1CC(=O)Nc1ccc(C)cc1C`, the survival was inactive: 84%. In the case of `O=C(Cn1c(=O)n(Cc2ccccc2)c(=O)c2oc3ccccc3c21)Nc1ccc(Cl)cc1`, the survival was inactive: 66%. For `Cc1ccc(/C=C/c2onc(C)c2S(=O)(=O)N2CCC(C(=O)N3CCOc4ccccc43)CC2)cc1`, the survival was inactive: 105%. For `CC(=O)Nc1cc(C(=O)NCc2ccc(F)cc2Cl)ccc1Sc1ccc(Cl)cc1`, the survival was inactive: 113%. `Cc1nc(-c2ccc(F)cc2)sc1CCNC(=O)c1ccco1` was tested, and the survival was inactive: 116%. With `CCc1ccc(CNC(=O)CCN2C(=O)COc3ccccc32)cc1` the survival was inactive: 66%. For `Cc1cc(C)cc(NC(=O)Cn2nnc(C(=O)Nc3cc(C)cc(C)c3)c2N)c1`, the survival was inactive: 74%. `COc1cc(NC(=O)Cn2c(C)cc3ccccc3c2=O)cc(OC)c1OC` was tested, and the survival was inactive: 59%. For `CN1c2ccccc2Oc2nnc(N3CCN(Cc4ccccc4)CC3)cc21`, the survival was inactive: 93%. With `COc1cc(OC)cc(C(=O)Nc2c(C(=O)Nc3ccc(F)cc3)oc3ccccc23)c1` the survival was inactive: 62%.

Source: PubChem BioAssay AID463173 (ICCB-Longwood Screening Facility, Harvard Medical School, 2010)
